Laboratory results taken from PubChem BioAssay AID743279 (National Center for Advancing Translational Sciences (NCATS), 2014).
In all, about 360,000 compounds went through this assay and about 17,000 (4.7%) were called active. The shares of active, inactive and inconclusive entries below differ from those in the screen. No stated cut-off is given here; in the data, active means activity change below about -50%; inconclusive means mostly about -30% to -49%; inactive means weaker than that.

experiment: qHTS for Inhibitors of Inflammasome Signaling: IL-1-beta AlphaLISA Primary Screen; conditions: THP-1 LPS/ATP IL-1B secretion, 16 h; at 57.5 µM, hits give low values
Summary of the method: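 THP-1 cells pretreated 1 hr with compounds (up to 57.5 uM final), then stimulated with LPS (250 ng/mL final) plus ATP (1.25 mM final); secreted IL-1B measured by AlphaLISA after 16 hr, decreased signal indicating inhibition.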
On the % scale 0 is the no-effect control and ±100 the full control effect.

Row | SMILES | activity change
1 | CC(=O)N1CCOc2ccc(S(=O)(=O)N3CCC(C(=O)NCc4ccc(F)cc4)CC3)cc21 | inactive: -17.8%
2 | CCN(CC)S(=O)(=O)c1ccc(OC)c(NC(=O)C(C)Oc2ccc3c(C)cc(=O)oc3c2)c1 (stereo unspecified) | inactive: 3.17%
3 | CSCCC(NC(=O)c1ccccc1)C(=O)NNC(=O)c1ccccc1 (stereo unspecified) | inconclusive: -31%
4 | Nc1nc(-c2ccc3c(c2)CCC(=O)N3)cs1 | inactive: -21.5%
5 | CCN(CC)CCCNC(=S)N(Cc1cccnc1)Cc1cc2cccc(C)c2[nH]c1=O | inconclusive: -39.8%
6 | CC(C)(C)OC(=O)NCCCC[C@H](NC(=O)c1[nH]cnc1C(=O)N[C@@H](Cc1ccccc1)C(=O)OCc1ccccc1)C(=O)OC(C)(C)C | inactive: -7.39%
7 | CCCCCCCCNS(=O)(=O)CCNCCCC | inconclusive: -40.5%
8 | Cc1cccc(C(=O)OC(C)C(=O)NCC2CCCCC2)c1O (stereo unspecified) | inactive: -4.3%
9 | CCOC(=O)C1=C(CC)OC(N)=C(C#N)C1c1ccc(NC(C)=O)cc1 (stereo unspecified) | inconclusive: -36.2%
10 | CCOC(=O)N1CCN(S(=O)(=O)c2ccc(C(=O)Nc3sc4c(c3C(N)=O)CCN(CC)C4)cc2)CC1 | active: -68.4%
11 | CC1CCCC(NC(=O)NC(=O)CCl)C1C (stereo unspecified) | active: -62.9%
12 | CCOCCn1ccc2c(OCC(=O)Nc3ccccc3OC)cccc2c1=O | active: -60%
13 | COc1c(OC(C)=O)ccc(/C=C/c2ccc3ccccc3n2)c1[N+](=O)[O-] | inactive: -4.63%
14 | Clc1nssc1=Nc1nncs1 | active: -72.8%
15 | COc1cc(CNCc2ccc(OC)c3ccccc23)cc(OC)c1OC | inconclusive: -42.4%
16 | CN(C)C(CNC(=O)C1CCN(S(=O)(=O)c2cccc(Cl)c2Cl)CC1)c1ccccc1 (stereo unspecified) | inconclusive: -34%
17 | O=c1c2ccccc2[nH]c2ccc(O)cc12 | active: -70.8%
18 | CC1=NN(c2ccc(Cl)cc2)C(=O)/C1=C\c1cccn1-c1ccc(S(N)(=O)=O)cc1 | inconclusive: -47.8%
19 | CC(=O)c1cccc(NC(=O)NC(C)c2ccc3c(c2)OCO3)c1 (stereo unspecified) | inconclusive: -32.3%

Row | SMILES | activity change
20 | O=C(NCc1ccc(Cl)cc1)c1cccc(NC(=O)c2ccccc2)c1 | inconclusive: -36.9%
21 | Cc1c(F)cccc1NS(=O)(=O)c1ccc(N2CCCC2=O)cc1 | inactive: 11.9%
22 | Cc1ccc(-c2cccc(C(=O)NCCc3ccccc3)n2)c2ccccc12 | inactive: -13.5%
23 | CCn1c(CNC(=O)COc2ccc(C(C)C)cc2)nnc1SCC(=O)Nc1ccccc1F | inconclusive: -40.5%
24 | O=c1c2sc(-c3ccccc3)cc2nc2n1CCC2 | inconclusive: -35.5%
25 | S=C(Nc1ccc(Oc2ccccc2)cc1)N(CCCN1CCOCC1)Cc1ccccn1 | inconclusive: -38.4%
26 | O=C(CN1CCCC1)Nc1ccc(Br)cc1[N+](=O)[O-] | inconclusive: -30.2%
27 | Cc1[nH]nc2c1C(c1cnn(C)c1)C(C#N)=C(N)O2 (stereo unspecified) | inconclusive: -30.3%
28 | Oc1ccc(/C=N\Nc2nncc(-c3ccccc3)n2)cc1 | inconclusive: -33%
29 | Cc1ccc(CNC(=O)c2ccc(COc3ccccc3)cc2)cc1 | inactive
30 | COC(=O)Cc1ccc(NC(=S)NCCO)cc1 | inactive: 14%
31 | Cc1ccc2cc(CN(CCN3CCCC3)C(=O)Nc3ccccc3)c(=O)[nH]c2c1C | inconclusive: -49.5%
32 | CCc1ccc(CN(C(=O)COc2c(C)cccc2C)C2CCS(=O)(=O)C2)cc1 (stereo unspecified) | inconclusive: -49.5%
33 | CN(CCn1ccnc1)Cc1cn(-c2ccccc2)nc1-c1ccc2c(c1)OCO2 | inactive: 4.21%
34 | CC(C)CC(=O)NC(c1ccccc1Cl)c1c(O)ccc2ccccc12 (stereo unspecified) | active: -68.4%
35 | CC(C)(C)c1ccc(C(=O)Nc2ccccc2C(=O)NCCN2CCOCC2)cc1 | inconclusive: -33.1%
36 | Cc1ccc(S(=O)(=O)Nc2ccc(NC(=O)Nc3ccc(F)cc3F)cc2)cc1 | inconclusive: -44.9%
37 | CC1C(C#N)=C(N)OC2=C1C(=O)CC(c1ccccc1)C2 (stereo unspecified) | inactive: -0.853%
38 | COc1ccc(Cn2c(=O)c3c(nc(NCCO)n3C)n(C)c2=O)cc1 | inactive: -7.65%

Row | SMILES | activity change
39 | CCO[C@@H]1OC(C(=O)N2CCN(Cc3ccccc3)CC2)=C[C@H](c2cn(C(C)=O)c3ccccc23)[C@H]1CCCO | inconclusive: -33.5%
40 | N#Cc1ccc(-c2ccc(OCC(O)CN3CCCCC3)cc2)cc1 (stereo unspecified) | inconclusive: -35.1%
41 | Cc1[nH][nH]c(=O)c1C(c1ccc(-c2ccc(F)cc2)o1)c1c(C)[nH][nH]c1=O | inconclusive: -31.7%
42 | NC(=O)/C=C/C(=O)Nc1ccc(Cl)cc1 | active: -78.5%
43 | CN(Cc1ccccc1)C(=O)c1cc2ccccc2o1 | inactive: -0.475%
44 | COc1ccc(C(CNC(=O)c2ccc(S(=O)(=O)N3CC(C)CC(C)C3)cc2)N(C)C)cc1 (stereo unspecified) | active: -52.2%
45 | COc1ccc(S(=O)(=O)N2CCCCCC2)cc1C(=O)N(C)CC(=O)Nc1ccc(Cl)c(Cl)c1 | active: -59.3%
46 | O=C(NCCN1C(=O)S/C(=C\c2ccc(OC(F)F)cc2)C1=O)[C@@H]1CCCN1C(=O)c1cccs1 | inconclusive: -37.7%
47 | NC(N)=N/N=C/c1cccc(Cl)c1Cl | active: -101%
48 | CC(=O)N1C[C@H]2CON(C)[C@H]2C[C@H]1c1ccc(-c2ccccc2)cc1 | inactive: 8.13%
49 | O=C1CC[C@H](O)CCN1[C@H](CSc1ccccc1)Cc1ccccc1 | inactive: 19.6%
50 | CN(C)C(=O)c1cccc(COc2ccc(N3C(N)=NC(N)=NC3(C)C)cc2Cl)c1 | inactive: 7.51%
51 | COc1ccccc1C(=O)NC1CCCCCCC1 | inconclusive: -38.2%
52 | COc1ccc(OCCOC(=O)CN2C(=O)NC3(CCCC3)C2=O)cc1 | inconclusive: -49.1%
53 | CCOC(=O)c1c(NC(=O)c2nn(CC)cc2Br)c(C#N)cn1-c1ccccc1 | inconclusive: -41.9%
54 | Clc1ccccc1OCc1nc(-c2ccccn2)no1 | inconclusive: -33.2%
55 | COc1cc(/C=N/O)ccc1Oc1cnccn1 | inactive: 10%
56 | NC(=O)C1CCN(c2cc(N3CCOCC3)ccc2[N+](=O)[O-])CC1 | inconclusive: -32.1%
